Laboratory results reported in publication PMC4336329 (PLoS ONE, 2015).
Among all 310,000 compounds or so, about 2,200 (0.71%) showed an effect of 50% or more. The effect is printed as a negative number. This is one part of the list.

Biological target: human ether-à-go-go-related gene (hERG) potassium channel (human, UniProt Q12809)
Assay: primary screen, population patch clamp on CHO cells stably expressing hERG

Chain of human ether-à-go-go-related gene (hERG) potassium channel (Q12809 whole entry, looked up): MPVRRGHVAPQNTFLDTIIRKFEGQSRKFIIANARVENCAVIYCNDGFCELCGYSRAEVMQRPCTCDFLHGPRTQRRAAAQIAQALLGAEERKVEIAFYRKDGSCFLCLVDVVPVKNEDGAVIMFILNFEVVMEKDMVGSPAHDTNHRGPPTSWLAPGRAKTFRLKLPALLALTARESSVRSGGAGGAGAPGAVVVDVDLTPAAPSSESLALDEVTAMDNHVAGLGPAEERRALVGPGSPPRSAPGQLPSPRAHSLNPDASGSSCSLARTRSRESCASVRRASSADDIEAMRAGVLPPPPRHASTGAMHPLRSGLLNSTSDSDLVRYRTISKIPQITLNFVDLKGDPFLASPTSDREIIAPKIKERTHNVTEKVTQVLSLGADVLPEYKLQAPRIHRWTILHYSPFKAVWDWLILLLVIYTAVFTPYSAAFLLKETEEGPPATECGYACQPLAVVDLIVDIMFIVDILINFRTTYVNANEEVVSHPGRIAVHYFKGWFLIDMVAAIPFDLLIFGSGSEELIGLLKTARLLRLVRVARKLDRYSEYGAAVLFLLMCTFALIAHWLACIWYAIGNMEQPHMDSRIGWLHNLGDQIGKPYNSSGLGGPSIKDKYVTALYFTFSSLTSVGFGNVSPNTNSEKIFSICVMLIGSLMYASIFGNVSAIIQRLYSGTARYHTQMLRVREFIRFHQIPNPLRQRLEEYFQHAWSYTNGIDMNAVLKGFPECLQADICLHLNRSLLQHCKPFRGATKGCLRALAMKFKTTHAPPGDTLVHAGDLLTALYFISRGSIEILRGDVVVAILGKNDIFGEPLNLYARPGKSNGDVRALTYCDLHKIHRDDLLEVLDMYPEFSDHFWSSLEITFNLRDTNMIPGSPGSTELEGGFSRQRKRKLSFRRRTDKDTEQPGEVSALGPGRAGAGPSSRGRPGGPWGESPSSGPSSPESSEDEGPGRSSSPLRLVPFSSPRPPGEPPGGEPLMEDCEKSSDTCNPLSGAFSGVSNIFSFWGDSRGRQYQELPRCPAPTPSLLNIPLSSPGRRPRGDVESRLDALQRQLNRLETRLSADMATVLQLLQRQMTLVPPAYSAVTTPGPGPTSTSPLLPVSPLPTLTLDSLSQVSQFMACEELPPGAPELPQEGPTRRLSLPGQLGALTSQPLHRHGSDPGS

SMILES	hERG current change (%, negative = inhibition) at 1uM [%]
CCc1ccc(/C=C/C(=O)c2cc(Br)ccc(=O)c2O)cc1	10
Cc1ccc(-c2cc(NC(=O)c3ccccc3[N+](=O)[O-])n[nH]2)cc1	15.1
COC(=O)C1Cc2c([nH]c3ccccc23)CN1C(C)=O (stereo not drawn)	14.1
COc1cc(OC)nc(NC(C)=O)n1	5.47
O=C(O)C[C@H]1c2ccc(C(F)(F)F)cc2S(=O)(=O)N1C1CCCCC1	9.92
CSc1ncc(CO)n1Cc1ccccc1	11.9
Cc1ccc(C(=O)C2=C(O)C(=O)N(Cc3cccnc3)C2c2ccc(Br)cc2)o1 (stereo not drawn)	14.6
CN(C)c1cc(NC(=O)CN2CCCC2)c2ccccc2n1.O=C(O)C(=O)O	7.97
Cc1ccc(NC(=O)c2ccc(COc3ccccc3)o2)nc1	9
CCCCNc1nc(Cl)nc(Nc2ccc(C)cc2)n1	11.8
Cc1ccc2nsnc2c1S(=O)(=O)N(Cc1cc2cccc(C)c2[nH]c1=O)CC1CCCO1 (stereo not drawn)	-1.74
CCCCN(CCCC)S(=O)(=O)c1ccc(NS(=O)(=O)c2ccc(NC(C)=O)cc2)cc1	-1.51
O=C(Cn1c2c(c(-c3ccccc3Cl)cc1=O)CCC2)N1CCC2(CC1)OCCO2	6.53
CCOC(=O)N1CCC(NC(=O)c2ccc3c(c2)sc2nc(-c4ccccc4)cn23)CC1	4.98
COc1ccc(S(=O)(=O)N(C)CC(=O)NCc2cccnc2)cc1Cl	7.68
Cc1cc(C(=O)Nc2ccc3c(c2)CCC3)c2ccccc2n1	14.3
Cn1c(-c2ccsc2)c(-c2cccs2)c2cc(-c3cccc4[nH]ccc34)ccc21	18.4
COc1cccc(C(=O)Nc2cccc(-c3ccc(N4CCOCC4)nn3)c2)c1	13.5
CCOC(=O)CC1=CC(C)(CC(=O)OCC)C(C#N)(C#N)C(N)=C1C#N (stereo not drawn)	5.76
CCCOc1ccc(N2C(=O)CC(N3CCOCC3)C2=O)cc1 (stereo not drawn)	3.71
CCOC(=O)C1CCN(c2c(NCCC(C)C)c(=O)c2=O)CC1	-1.16
CC(C)NC(=O)NNc1c(Cl)cncc1Cl	13.9
Cc1cc2occ(CC(=O)NNC(=O)c3ccccc3F)c2cc1C	8.1

SMILES	hERG current change (%, negative = inhibition) at 1uM [%]
C/C(=N\NC(=O)c1ccccc1)c1nc2ccccc2n1C	3.11
CC(C)Oc1ccc(C(=O)OCC(=O)NC2CCCCCC2)cc1	12.8
COC(C)(C)CCCC(C)C/C=C/C(C)=C/C(=O)OC(C)C (stereo not drawn)	7.39
COC(=O)c1ccc(C2C(C#N)=C(N)Oc3cc(O)ccc32)cc1 (stereo not drawn)	11.4
O=c1c2cc(Cl)ccc2nc(-c2ccc([N+](=O)[O-])cc2)n1O	11.4
CCn1nc(CC(=O)Nc2ccc(-n3cnnn3)c(OC)c2)c2ccccc2c1=O	5.87
Nc1cc(=O)[nH]c(SCCOc2ccccc2)n1	11.5
O=C(Nc1ccc(Cl)cc1)Nc1nnc(Cc2ccc([N+](=O)[O-])cc2)s1	13.9
Nc1nc(SCC(=O)c2ccc(Oc3ccccc3)cc2)n[nH]1	-7.97
COc1cccc(NC(=O)CCN2C(=O)c3ccccc3S2(=O)=O)c1	11.1
CCC(C(=O)NCCC(C)C)n1ccc2cc(S(=O)(=O)N3CCCCC3)ccc21 (stereo not drawn)	6.32
O=c1[nH]cc(COCc2ccccc2)c(=O)[nH]1	9.59
C[N+]1(CC(=O)OCCCc2ccccc2)CCCCC1.[I-]	13.5
Cc1noc(C)c1C(=O)Nc1nc2ccc(Cl)cc2s1	8.24
COc1ccccc1C(=O)Nc1cc(-c2ccc(C)cc2)no1	13
Cc1ccc(C(=O)N2CCN(c3ccc(NC(=O)CSc4ccc(Cl)cc4)cc3)CC2)cc1	16.2
COc1ccc(-c2cc(=O)c(C(=O)c3ccc(C)cc3)n[nH]2)cc1	14.8
CCN1CCN(Cc2cccc(Oc3ccc(Cl)cc3)c2)CC1	-15.1
O=C(COc1ccc([N+](=O)[O-])cc1)Nc1ccc(N2CCN(C(=O)c3ccco3)CC2)cc1	9.94
CN(c1ccccc1)c1nc(N)c([N+](=O)[O-])c(NCc2ccco2)n1	-2.93
O=C(N/N=C/C1CC=CCC1)c1ccc(Cl)cc1O (stereo not drawn)	4.58
O=C(O/N=C(\c1ccccc1)c1ccccn1)c1cccc2ccccc12	0.164
NP(=O)(OCC(F)(F)F)Oc1ccccc1 (stereo not drawn)	13.7

SMILES	hERG current change (%, negative = inhibition) at 1uM [%]
COc1ccc(OCCn2c(NC(=O)c3ccco3)nc3ccccc32)cc1	14.9
COc1ccc(CNC(=O)C2CCN(S(=O)(=O)c3ccccc3)CC2)cc1	18.2
CCC1=NN(C(=O)c2ccc(Br)cc2)C(O)(c2ccccc2)C1 (stereo not drawn)	9.5
O=C(O)c1ccc(-c2nc3ccccc3s2)o1	11.8
CC1(C)Cc2cccc(OCC(=O)NCCOc3ccccc3)c2O1	0.28
CCOc1ccc(-n2cnnn2)cc1S(=O)(=O)NCc1ccccc1	-44.4
CC1CC(C)CN(S(=O)(=O)c2ccc(C(=O)N3CC(C)OC(C)C3)cc2)C1 (stereo not drawn)	9.52
CCc1cccc(NS(=O)(=O)c2ccc3c(c2)NC(=O)C(C)S3)c1 (stereo not drawn)	13.6
CCOc1cc(/C=N/NC(=O)C(=O)N2CCCC2)ccc1O	13.2
Nc1ccc(C(=O)NCC2(c3ccccc3)CCCC2)cc1	0.32
Cc1cc(=O)n2cc(-c3ccccc3)nc2[nH]1	-4.8
CCN1C(=O)/C(=C\N2CCN(C(=O)c3ccco3)CC2)SC1=S	11.7
COc1ccc(-c2nc(CNS(=O)(=O)c3cc(OC)ccc3OC)cs2)cc1	7.44
CCn1c(=O)c2c3c(sc2n2cnnc12)CCC3	19.7
O=C(CNC(=S)NC(=O)c1ccc(F)cc1)c1ccccc1	14
COc1ccc(NC(=O)CSC2=NC(=O)CC(C)=N2)cc1	17.4
CCC(C)Oc1ccc(C(=O)Nc2ccc(CN3CCOCC3)cc2)cc1 (stereo not drawn)	5.88
Cc1nnc2ccc(-c3ccc(NC(=O)c4ccco4)cc3)nn12	-4.49
Nc1cc(Cl)c(N)cc1Cl	4.7
CSc1nsc(SCC(=O)Nc2cc(C(=O)O)ccc2C)n1	6.07
CCOC(=O)N1CCN(CC(=O)Nc2ccc(C)cc2)CC1	6.17
Cc1ccc(C2CC(c3cccc(Br)c3)n3nc(N)nc3N2)cc1 (stereo not drawn)	11.2
Cc1ccc(S(=O)(=O)N2CCN(C(=O)CN3CCc4ccccc4C3)CC2)cc1.O=C(O)C(=O)O	-3.74

SMILES	hERG current change (%, negative = inhibition) at 1uM [%]
O=C(COC(=O)CNC(=O)c1ccc(Cl)cc1)Nc1cccc(S(=O)(=O)N2CCCC2)c1	-5.32
O=C(CCc1nc2ccccc2s1)OCc1ccccc1	-8.84
O=C(c1ccc(NS(=O)(=O)c2ccc3[nH]c(=O)[nH]c3c2)cc1)N1CCN(c2ccccc2O)CC1	5.74
COc1ccc([C@@H]2CC=C(C(=O)O)[C@H](c3cccc(Cl)c3)N2S(=O)(=O)c2ccc(C)cc2)cc1OC	16.1
CC(=O)c1ccccc1C(=O)N1CCCC(N2CCN(Cc3ccc4c(c3)OCO4)CC2)C1 (stereo not drawn)	6.05
COc1ccc(-c2[nH]ncc2CN2CCCO2)c(F)c1	10.3
COc1ccc(Nc2nc(NCc3ccco3)nc(N/N=C/c3ccc(O)cc3)n2)cc1	-2.89
O=C(CC1S/C(=N/N=C/c2c[nH]c3ccccc23)NC1=O)Nc1ccccc1 (stereo not drawn)	5.08
CCOC(=O)N1CCN(c2c(N3CC=C(c4ccccc4)CC3)c(=O)c2=O)CC1	-6.68
CN1CCN(C(=O)NC2CCCCC2)CC1.O=C(O)C(=O)O	6.34
O=C(c1ccccc1NS(=O)(=O)c1ccc(Cl)cc1)N1CCc2ccccc21	12.2
O=C(Nc1cc(C(F)(F)F)ccc1N1CCOCC1)c1n[nH]c(=O)c2ccccc12	1.77
Cc1ccc(-c2nnc(SCC(=O)Nc3sc(C)c(C)c3C#N)n2C)cc1	-11.9
Cc1ccccc1NC(=O)CCS(=O)(=O)c1ccc(Br)cc1	10.3
NC(=O)C1CCN(C(=O)/C(=C/c2ccco2)NC(=O)c2ccccc2)CC1	6.13
Cc1cc(C(=O)Nc2cccnc2Cl)on1	2.31
O=C(NCc1ccc2c(c1)OCO2)C1CCN(S(=O)(=O)c2ccc(Br)s2)CC1	9.97
COc1ccccc1-n1nnnc1SCC(=O)N(CC(C)C)C1CCS(=O)(=O)C1 (stereo not drawn)	0.673
Cc1cc(NC(=O)CN2C(=O)NC(CC(C)C)C2=O)ccc1Br (stereo not drawn)	4.2
c1ccc2c3c([nH]c2c1)CNCC3	15.7
Cc1cccc(C)c1NC(=O)CCCSc1nnc(-c2ccco2)n1-c1ccccc1	-0.258
